# Data published in PubChem BioAssay (NCATS).
# Values joined by “and” are separate entries in the source; they are usually repeats but may differ in a detail not shown here. Equal values may be shown once. This list was built around the results that the source calls inconclusive (neither active nor inactive); the mix of calls is not that of the screen. For some of these results: Where the call is inconclusive, the potency comes from a doubtful curve fit. For some of these results: “Side channel” marks fits to a control or component signal instead of the main read-out. Active and inactive are the calls of the source. Unless noted, the call rests on the fitted dose curve; in most records, active means well fitted curve in the direction sought with a large enough effect; inconclusive means small, poorly fitted or top-dose-only effect, or another doubt; inactive means no such curve, though single readings can be large; an effect the other way counts as inactive or inconclusive.
# Experiments:
# [1] = NCATS anti-infectives library activity on the primary C. elegans qHTS viability assay (AID 1745855; calls by dose curve; further: potency means the concentration at half of the fitted maximal effect); conditions: C. elegans worm area imaging, day 7; series mostly up to 41.8 µM
# How it was run: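 GFP read-out by 488 nm laser cytometry at day 0, 3 and 7, gated on object perimeter, area and peak intensity, scored viability of PE254-GFP-FLuc worms exposed to compound in S medium with bacterial capsules at 21 °C.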
# [2] = biological target: Thioredoxin reductase 1, cytoplasmic (Rattus norvegicus) (UniProt O89049); test: qHTS Assay for Inhibitors of Mammalian Selenoprotein Thioredoxin Reductase 1 (TrxR1) (AID 488773); conditions: purified TrxR1 enzyme activity; Potency: inhibition; series mostly up to 57.1 µM; further: potency means the concentration at half of the fitted maximal effect; nearly all actives have a fitted effect of over 40% in size
# How it was run: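 Inhibition is scored from the loss of NADPH fluorescence between first and last reads of an 8-min kinetic run. Selenite (400 uM) was the substrate, added after 15 min compound preincubation at room temperature.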
# [3] = HTS Assay for Allosteric Antagonists of the Human D2 Dopamine Receptor: Hit Validation in HTRF (AID 624455); conditions: Cells stably expressing D1 dopamine receptor, inhibition mode; series mostly up to 46.1 µM;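 further: stable D1 dopamine receptor cell line scored for blocking the D1 response; potency means the concentration at half of the fitted maximal effect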
# How it was run: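 Inhibition of the D1-mediated response was measured by HTRF. Cells used were a line stably expressing the D1 dopamine receptor.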
# [4] = biological target: Hexokinase-4 (Homo sapiens) + Glucokinase regulatory protein (Homo sapiens) (UniProt P35557+Q14397); test: qHTS assay for inhibitors of recombinant human GCK-GKRP interaction: HTRF assay (AID 743207); conditions: recombinant GCK-GKRP HTRF binding, 60 min; with sorbitol-6-phosphate; further: potency means the concentration at half of the fitted maximal effect
# How it was run: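 HTRF read-out (ex 320 nm; 615/665 nm emission) after 60 min RT equilibration of 5 nM GST-GCK, 5 nM FLAG-GKRP, 2 uM S6P, compound and anti-FLAG/anti-GST detection antibodies; signal normalized between DMSO wells with and without GCK.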
# [5] = biological target: T1, Tyrosine-protein phosphatase non-receptor type substrate 1 (Homo sapiens) + Leukocyte surface antigen CD47 (Homo sapiens) (UniProt P78324+Q08722); test: CD47-SIRPalpha protein protein interaction - HTRF assay qHTS validation (AID 1347058; active means well fitted curve in the direction sought with a large enough effect in the signal ratio, not every such curve was filed as active; inconclusive means small, poorly fitted or top-dose-only effect, or effect the other way, or a change in a side signal; inactive means no such curve, though single readings can be large or run the other way; the % refers to the signal ratio; further: potency means the concentration at half of the fitted maximal effect); conditions: TR-FRET HTRF CD47-His / biotin-SIRPalpha binding, ratio 665/615; series mostly up to 38.3 µM
# How it was run: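 Soluble extracellular domains (6His-CD47, Avi-tag-biotinylated SIRPalpha) in PBS pH 7.4 with 0.05% IGEPAL CA-630. Compounds were preincubated 30 min at RT with CD47 and anti-His-Eu, then SIRPalpha and SAV-XL665 were added. TR-FRET 665/615 ratio.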
# [6] = biological target: T1, Tyrosine-protein phosphatase non-receptor type substrate 1 (Homo sapiens) + Leukocyte surface antigen CD47 (Homo sapiens); test: CD47-SIRPalpha protein protein interaction - Alpha assay qHTS validation (AID 1347059); conditions: AlphaScreen CD47-His/biotin-SIRPalpha binding, LOPAC; series mostly up to 38.3 µM
# How it was run: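 In PBS (pH 7.4) with 0.05% IGEPAL CA-630, compound is preincubated with biotin-Avi-SIRPalpha ectodomain before His-CD47 ectodomain and affinity beads are added. Light-protected room-temperature incubations; AlphaScreen readout.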
# [7] = biological target: Lysine-specific demethylase 5B (Homo sapiens) (UniProt Q9UGL1); test: Optimization screen for KDM5B Histone Demethylases FDH coupled qHTS against the LOPAC library (AID 1347166); conditions: KDM5B demethylation, FDH-coupled NADH fluorescence (FDH is formaldehyde dehydrogenase); series mostly up to 57.5 µM; further: potency means the concentration at half of the fitted maximal effect
# How it was run: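 KDM5BDeltaAP (200nM final) in 50mM HEPES pH 7.5, 0.01% Tween-20 was preincubated with compound for 10 min at room temperature. A substrate mix of 12.5uM H3K4Me3, 25uM a-ketoglutarate, ascorbate, Fe2+, NAD+ and formaldehyde dehydrogenase was then added. NADH fluorescence (340/450 nm) was read initially and after 30 min.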
# [8] = biological target: Papain (Carica papaya) (UniProt P00784); test: Primary qHTS assay for inhibitors of the protease papain (AID 1645873); conditions: papain Z-FR-AMC cleavage, AMC fluorescence; series mostly up to 49.8 µM
# [9] = MultiTox-Fluor Cytotoxicity Assay - LYMP1-002 - Live Cells (AID 955); conditions: LYMP1-002 lymphoblastoid live-cell protease fluorescence viability; series mostly up to 46.1 µM;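 further: cells exposed to compound for 16 hours; on the % scale 0 is the no-effect control and ±100 the full control effect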
# How it was run: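 After 16 h compound exposure at 37 C, live LYMP1-002 lymphoblastoid cells (2500/well) were quantified by cleavage of cell-permeant GF-AFC substrate, read at 405/510 nm after 60 min. Concentration-response fitted with Hill equation for AC50.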
# [10] = Cell Viability - LYMP2-020 (AID 986); conditions: series mostly up to 92.2 µM;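 further: plate controls were DMSO only for no effect and tetraoctylammonium bromide at 92 µM for full effect; nearly all actives have a fitted effect of over 55% in size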
# How it was run: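 Cytotoxicity in qHTS format: luminescent ATP readout from CellTiter-Glo after 24 h compound exposure at 37 C in complete medium. LYMP2-020 lymphoblastoid cells were seeded at 2500/well; concentration-response data fitted to the Hill equation for AC50.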
# [11] = biological target: Ubiquitin carboxyl-terminal hydrolase 1 (Homo sapiens) (UniProt O94782); test: Inhibitors of USP1/UAF1: Pilot qHTS (AID 504865); conditions: purified USP1/UAF1, Ub-rhodamine cleavage fluorescence; series mostly up to 114 µM;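 further: rhodamine fluorescence freed from ubiquitin-rhodamine substrate followed over time; top concentration of the series differs between compounds; on the % scale 0 is the no-effect control and ±100 the full control effect; nearly all actives have a fitted effect of over 35% in size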
# How it was run: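 1nM USP1/UAF1 + cpd, 15 min RT; start w/ Ub-Rho 150nM final; kinetic FL 480/540 nm, 6 reads q60 s. Buffer 50mM HEPES pH 7.8, 0.5mM EDTA, 1mM TCEP, 0.01% Tween-20, 0.1 mg/ml BSA.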
# [12] = biological target: Estrogen receptor (Homo sapiens) (UniProt P03372); test: qHTS assay for small molecule antagonists of estrogen receptor alpha signaling (AID 588513; active means well fitted curve in the direction sought with a large enough effect in the signal ratio, with a control signal flat, not every such curve was filed as active; inconclusive means small, poorly fitted or top-dose-only effect, or effect the other way, or a change in a side signal; inactive means no such curve, though single readings can be large or run the other way; the % refers to the signal ratio; further: on the % scale 0 is the no-effect control and ±100 the full control effect); conditions: ER-alpha-UAS-bla HEK293, beta-lactamase ratio, antagonist mode; activity, negative = inhibition: at 76.9 µM (top of the series)
# How it was run: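 Beta-lactamase reporter, antagonist mode, HEK 293 GripTite cells; 0.5nM E2 stimulus, 18 h, 37 C; CCF4 dye 2 h RT; fluorescence. IC50 and efficacy from Hill fits, normalized to E2 and DMSO.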
# [13] = biological target: Bile acid receptor (Homo sapiens) (UniProt Q96RI1); test: qHTS assay for small molecule antagonists of farnesoid X receptor signaling (AID 588526; calls by dose curve; further: on the % scale 0 is the no-effect control and ±100 the full control effect); conditions: HEK293T FXR-UAS-bla, beta-lactamase ratio, antagonist mode; activity change, negative = inhibition: at 76.7 µM (top of the series)
# How it was run: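 Concentration-response titrations were fitted to the Hill equation for half-maximal inhibition and maximal response, with data normalised to 50 uM chenodeoxycholic acid and DMSO control wells. Cells: FXR-UAS-bla HEK293T, dialyzed FBS.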
# [14] = biological target: Peroxisome proliferator-activated receptor gamma (Homo sapiens) (UniProt P37231); test: qHTS assay for small molecule antagonists of peroxisome proliferator-activated receptor gamma signaling (AID 588537; active means well fitted inhibition curve with a large enough effect in the signal ratio, with a control signal flat, not every such curve was filed as active; inconclusive means small, poorly fitted or top-dose-only effect, or effect the other way, or a change in a side signal; the % refers to the signal ratio;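 further: reporter cells co-stimulated with 50 nM rosiglitazone agonist during compound treatment; % of control where 0% means no effect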); conditions: HEK293 PPARg-UAS-bla, beta-lactamase ratio, antagonist mode; activity, negative = inhibition: at 76.8 µM (top of the series)
# How it was run: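 Compounds are tested as concentration series for inhibition of rosiglitazone-driven (50 nM) reporter expression in GeneBLAzer PPAR-gamma-UAS-bla HEK293 cells. After 16 h at 37 C, CCF4 substrate is added for 2 h at room temperature and blue/green fluorescence is measured.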
# [15] = biological target: Nuclear receptor ROR-gamma (Homo sapiens) (UniProt P51449); test: qHTS assay for small molecule antagonists of the retinoid-related orphan receptor gamma (ROR-gamma) signaling pathway (AID 651802); conditions: ROR-gamma antagonist cell reporter assay; series mostly up to 92.2 µM; further: potency means the concentration at half of the fitted maximal effect; nearly all actives have a fitted effect of over 60% in size
# How it was run: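 Luminescence (One-Glo, 30 min RT) measured 16 h after compound addition and doxycycline induction at 37C. Reporter: RORE-luciferase under TET-inducible ROR-gamma in CHO cells.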
# [16] = Tertiary RLuc qRT-PCR qHTS assay for Zika virus inhibitors (AID 1347169); conditions: infected Vero cells, reporter luminescence, 48-72 h; series mostly up to 45.9 µM; further: potency means the concentration at half of the fitted maximal effect; nearly all actives have a fitted effect of over 55% in size
# How it was run: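 Luminescence read-out: live-cell Renilla luciferase substrate applied to infected Vero cells, signal measured after 1-1.5 hrs. Cells had received compound before ZIKV-RLuc (Cambodian strain, MOI 1-2) infection and were incubated 48-72 hrs at 37 degrees C.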
# [17] = biological target: Protein phosphatase 1D (Homo sapiens) (UniProt O15297); test: RapidFire Mass Spectrometry qHTS Assay for Modulators of WT P53-Induced Phosphatase 1 (WIP1) (AID 1347424); conditions: WIP1 dephosphorylation of phosphopeptide, RapidFire MS; series mostly up to 63 µM
# How it was run: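 Mass-spectrometric measurement of dephosphorylated peptide after a 5 min room-temperature reaction of 10 nM WIP1 with 2 uM phosphopeptide, following 1 h compound preincubation in 30 mM MgCl2 buffer.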
# [18] = biological target: Bile acid receptor (Homo sapiens) (UniProt Q96RI1); test: qHTS assay for small molecule agonists of farnesoid X receptor signaling (AID 588527; calls by dose curve; further: potency means the concentration at half of the fitted maximal effect); conditions: HEK293T FXR-UAS-bla, beta-lactamase ratio, 16 h; activation: hits give high values
# How it was run: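 FXR-UAS-bla HEK293T cells (10% dialyzed FBS) preincubated 5-7 h at 37 C, then compounds at up to 92 uM for 16 h at 37 C. CCF4 beta-lactamase read-out after 2 h RT. Normalized to chenodeoxycholic acid (100 uM) and DMSO; Hill fit gave EC50 and efficacy.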
# [19] = biological target: Retinoic acid receptor RXR-alpha (Homo sapiens) (UniProt P19793); test: qHTS assay for small molecule agonists of retinoid X receptor alpha signaling (AID 588544; calls by dose curve; further: potency means the concentration at half of the fitted maximal effect;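 on activation: 0% = DMSO basal wells and 100% = reference agonist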); conditions: HEK293T RXRa-UAS-bla, beta-lactamase reporter, 18 h; activation: at 76.7 µM (top of the series)
# [20] = qHTS assay for small molecule agonists of the antioxidant response element (ARE) signaling pathway (AID 651741; active means well fitted activation curve with a large enough effect in the signal ratio; inconclusive means small, poorly fitted or top-dose-only effect, or effect the other way, or a change in a side signal; the % refers to the signal ratio; further: potency means the concentration at half of the fitted maximal effect; on activation: % of control where 0% means no effect); conditions: HepG2 ARE-bla reporter, beta-lactamase FRET ratio, 16 h; activation: at 96 µM (top of the series)
# How it was run: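 Reporter: beta-lactamase under ARE, stably in HepG2. Exposure: 16 h, 37 C, compounds delivered in DMSO by pin tool after 5 h cell preincubation. Readout: FRET substrate fluorescence after 2 h at RT.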
# Tags describe the fitted curve by direction and shape or compound fluorescence and quenching.
# T1 sequence (P78324 whole entry, looked up, the tested form may be a part): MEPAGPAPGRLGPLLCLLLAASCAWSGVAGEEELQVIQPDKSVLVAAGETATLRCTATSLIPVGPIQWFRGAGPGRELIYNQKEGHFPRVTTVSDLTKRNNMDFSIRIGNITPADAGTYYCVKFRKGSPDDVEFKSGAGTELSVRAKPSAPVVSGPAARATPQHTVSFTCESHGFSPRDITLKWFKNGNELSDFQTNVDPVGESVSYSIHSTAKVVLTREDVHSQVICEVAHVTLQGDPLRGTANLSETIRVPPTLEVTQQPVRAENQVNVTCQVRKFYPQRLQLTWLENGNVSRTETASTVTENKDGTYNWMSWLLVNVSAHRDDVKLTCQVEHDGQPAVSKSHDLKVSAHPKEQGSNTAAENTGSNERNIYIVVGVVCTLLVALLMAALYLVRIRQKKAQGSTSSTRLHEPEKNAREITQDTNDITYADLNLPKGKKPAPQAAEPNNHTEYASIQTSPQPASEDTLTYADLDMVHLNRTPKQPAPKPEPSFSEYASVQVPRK
# T1 sequence (Q08722 whole entry, looked up, the tested form may be a part): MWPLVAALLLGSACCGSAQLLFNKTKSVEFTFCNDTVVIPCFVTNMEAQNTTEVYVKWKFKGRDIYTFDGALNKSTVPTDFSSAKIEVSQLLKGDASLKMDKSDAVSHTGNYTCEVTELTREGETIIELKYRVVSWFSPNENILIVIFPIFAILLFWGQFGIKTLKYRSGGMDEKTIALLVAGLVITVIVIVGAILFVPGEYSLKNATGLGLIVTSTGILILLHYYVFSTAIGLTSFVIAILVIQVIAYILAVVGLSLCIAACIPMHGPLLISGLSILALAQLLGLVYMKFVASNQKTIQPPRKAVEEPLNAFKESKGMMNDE
# Chain of UniProt O15297 (O15297 whole entry, looked up): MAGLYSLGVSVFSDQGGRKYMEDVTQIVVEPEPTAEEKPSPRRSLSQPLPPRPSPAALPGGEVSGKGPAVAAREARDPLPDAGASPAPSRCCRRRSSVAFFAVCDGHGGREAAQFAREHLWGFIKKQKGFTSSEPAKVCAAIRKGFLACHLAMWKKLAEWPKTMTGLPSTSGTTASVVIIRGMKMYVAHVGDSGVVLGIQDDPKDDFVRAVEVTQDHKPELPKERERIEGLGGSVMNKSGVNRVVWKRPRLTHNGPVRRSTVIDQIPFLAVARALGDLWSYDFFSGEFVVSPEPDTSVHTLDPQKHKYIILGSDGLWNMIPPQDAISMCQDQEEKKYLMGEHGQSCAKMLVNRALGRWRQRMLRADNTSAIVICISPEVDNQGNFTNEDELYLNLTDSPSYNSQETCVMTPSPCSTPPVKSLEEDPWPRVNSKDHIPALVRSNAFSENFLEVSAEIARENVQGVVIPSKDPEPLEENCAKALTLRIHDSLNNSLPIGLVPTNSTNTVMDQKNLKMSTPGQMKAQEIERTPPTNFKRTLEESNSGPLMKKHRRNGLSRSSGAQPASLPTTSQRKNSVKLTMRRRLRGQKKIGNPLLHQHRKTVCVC
# Chain of UniProt P19793 (P19793 whole entry, looked up): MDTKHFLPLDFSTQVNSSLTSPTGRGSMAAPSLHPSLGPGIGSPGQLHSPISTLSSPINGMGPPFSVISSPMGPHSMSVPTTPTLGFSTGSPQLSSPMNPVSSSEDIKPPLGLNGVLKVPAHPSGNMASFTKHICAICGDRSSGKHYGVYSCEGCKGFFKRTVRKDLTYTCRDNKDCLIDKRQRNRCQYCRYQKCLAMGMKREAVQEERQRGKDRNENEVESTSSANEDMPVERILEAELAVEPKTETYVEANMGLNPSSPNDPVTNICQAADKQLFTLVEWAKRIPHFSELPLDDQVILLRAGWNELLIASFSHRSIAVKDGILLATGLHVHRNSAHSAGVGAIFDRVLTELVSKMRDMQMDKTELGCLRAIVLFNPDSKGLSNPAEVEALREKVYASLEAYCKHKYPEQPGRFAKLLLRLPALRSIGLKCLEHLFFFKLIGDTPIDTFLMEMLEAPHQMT
# Chain of UniProt P51449 (P51449 whole entry, looked up): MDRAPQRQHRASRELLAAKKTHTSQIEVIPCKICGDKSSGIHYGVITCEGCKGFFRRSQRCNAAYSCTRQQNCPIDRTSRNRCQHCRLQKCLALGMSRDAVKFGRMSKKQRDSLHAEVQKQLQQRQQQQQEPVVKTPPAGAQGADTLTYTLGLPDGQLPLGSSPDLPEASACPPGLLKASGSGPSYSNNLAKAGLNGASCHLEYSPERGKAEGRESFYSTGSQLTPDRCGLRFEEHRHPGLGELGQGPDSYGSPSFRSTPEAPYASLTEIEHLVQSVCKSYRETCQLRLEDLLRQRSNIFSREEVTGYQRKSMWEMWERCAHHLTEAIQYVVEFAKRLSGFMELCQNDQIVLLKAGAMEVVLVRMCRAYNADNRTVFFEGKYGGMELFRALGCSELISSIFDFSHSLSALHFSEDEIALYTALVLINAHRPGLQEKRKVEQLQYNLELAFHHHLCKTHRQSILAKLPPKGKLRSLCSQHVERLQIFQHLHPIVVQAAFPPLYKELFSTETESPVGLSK
# Chain of UniProt P03372 (P03372 whole entry, looked up): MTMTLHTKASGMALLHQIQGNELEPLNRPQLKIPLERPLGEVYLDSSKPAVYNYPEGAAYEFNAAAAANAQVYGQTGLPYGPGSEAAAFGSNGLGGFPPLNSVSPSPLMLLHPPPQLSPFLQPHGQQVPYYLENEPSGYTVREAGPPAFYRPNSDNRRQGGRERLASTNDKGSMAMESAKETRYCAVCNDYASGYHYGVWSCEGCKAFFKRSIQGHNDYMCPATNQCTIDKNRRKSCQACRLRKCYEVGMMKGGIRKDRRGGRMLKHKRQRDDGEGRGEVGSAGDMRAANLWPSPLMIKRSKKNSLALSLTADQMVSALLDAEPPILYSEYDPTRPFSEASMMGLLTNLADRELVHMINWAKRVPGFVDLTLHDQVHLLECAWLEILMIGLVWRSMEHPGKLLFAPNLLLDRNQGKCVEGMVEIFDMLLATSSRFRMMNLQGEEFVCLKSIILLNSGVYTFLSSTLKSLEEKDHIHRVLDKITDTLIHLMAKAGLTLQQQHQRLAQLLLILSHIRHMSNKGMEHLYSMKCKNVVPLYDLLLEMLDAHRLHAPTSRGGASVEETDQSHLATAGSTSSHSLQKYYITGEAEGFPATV
# Chain of UniProt P35557 (P35557 whole entry, looked up): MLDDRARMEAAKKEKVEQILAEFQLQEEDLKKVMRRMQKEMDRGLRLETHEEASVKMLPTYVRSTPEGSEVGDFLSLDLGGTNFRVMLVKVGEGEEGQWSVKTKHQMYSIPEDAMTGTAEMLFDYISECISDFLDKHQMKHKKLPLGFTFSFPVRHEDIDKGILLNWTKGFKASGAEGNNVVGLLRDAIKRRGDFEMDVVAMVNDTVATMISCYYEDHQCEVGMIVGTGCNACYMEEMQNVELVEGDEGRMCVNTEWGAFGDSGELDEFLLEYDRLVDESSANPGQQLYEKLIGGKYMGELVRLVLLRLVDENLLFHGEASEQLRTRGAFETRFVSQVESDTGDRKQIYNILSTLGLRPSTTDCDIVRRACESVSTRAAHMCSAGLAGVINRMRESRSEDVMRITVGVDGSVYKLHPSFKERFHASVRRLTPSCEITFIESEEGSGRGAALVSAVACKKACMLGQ
# Chain of UniProt P35557 (Q14397 whole entry, looked up): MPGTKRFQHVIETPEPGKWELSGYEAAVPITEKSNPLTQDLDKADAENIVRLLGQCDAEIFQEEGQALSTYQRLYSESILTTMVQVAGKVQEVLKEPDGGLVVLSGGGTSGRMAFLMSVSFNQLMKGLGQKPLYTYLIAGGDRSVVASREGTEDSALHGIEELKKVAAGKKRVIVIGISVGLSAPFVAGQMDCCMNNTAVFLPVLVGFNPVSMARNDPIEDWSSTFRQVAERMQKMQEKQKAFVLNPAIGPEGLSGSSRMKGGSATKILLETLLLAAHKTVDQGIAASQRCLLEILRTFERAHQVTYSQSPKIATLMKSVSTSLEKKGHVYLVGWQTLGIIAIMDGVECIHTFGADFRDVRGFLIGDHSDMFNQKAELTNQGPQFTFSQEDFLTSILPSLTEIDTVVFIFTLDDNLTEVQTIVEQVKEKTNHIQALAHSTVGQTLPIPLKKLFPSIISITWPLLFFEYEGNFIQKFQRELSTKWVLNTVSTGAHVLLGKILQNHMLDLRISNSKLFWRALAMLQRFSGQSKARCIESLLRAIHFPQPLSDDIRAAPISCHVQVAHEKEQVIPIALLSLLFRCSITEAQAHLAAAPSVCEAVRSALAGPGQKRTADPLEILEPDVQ
# Chain of UniProt O94782 (O94782 whole entry, looked up): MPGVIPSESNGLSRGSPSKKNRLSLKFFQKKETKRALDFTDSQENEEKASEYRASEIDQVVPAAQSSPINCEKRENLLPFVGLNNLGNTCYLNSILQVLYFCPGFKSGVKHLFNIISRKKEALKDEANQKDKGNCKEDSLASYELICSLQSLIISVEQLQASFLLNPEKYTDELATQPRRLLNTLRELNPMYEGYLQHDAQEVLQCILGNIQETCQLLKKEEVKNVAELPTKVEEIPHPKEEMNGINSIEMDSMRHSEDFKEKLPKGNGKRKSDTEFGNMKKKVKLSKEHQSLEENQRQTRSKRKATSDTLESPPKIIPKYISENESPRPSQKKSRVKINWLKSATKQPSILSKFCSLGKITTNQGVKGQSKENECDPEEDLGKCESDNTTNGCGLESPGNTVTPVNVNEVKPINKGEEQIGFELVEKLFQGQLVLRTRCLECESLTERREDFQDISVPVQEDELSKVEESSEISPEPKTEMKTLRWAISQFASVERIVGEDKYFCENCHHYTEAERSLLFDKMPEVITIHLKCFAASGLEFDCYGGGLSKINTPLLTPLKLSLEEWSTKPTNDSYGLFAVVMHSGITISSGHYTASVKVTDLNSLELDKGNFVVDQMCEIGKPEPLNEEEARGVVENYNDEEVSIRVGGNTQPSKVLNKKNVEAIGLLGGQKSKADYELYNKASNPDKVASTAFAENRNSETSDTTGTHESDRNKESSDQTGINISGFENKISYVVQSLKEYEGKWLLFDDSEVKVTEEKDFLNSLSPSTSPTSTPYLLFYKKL
structure (smiles),measurement,setting,value
NS(=O)(=O)c1ccc(NC(=O)Nc2ccc(F)cc2)cc1,Potency,[1],active: 12.9 µM
CN(C)[C@@H]1C(=O)C(C(N)=O)=C(O)[C@@]2(O)C(=O)C3=C(O)c4c(O)ccc(Cl)c4[C@@H](O)[C@H]3C[C@@H]12,Potency,[2],"inconclusive: 33.6 µM [inhibitor, single point]"
same,Potency,[3],"inconclusive: 25.9 µM [inhibitor, single point]"
same,Potency,[4],active: 12.6 µM
same,Potency,[5],inconclusive: 20.7 µM [single point]
same,Potency,[6],"inconclusive: 23.3 µM [inhibitor, single point]"
same,Potency,[7],"inconclusive: 28.2 µM [inhibitor, partial curve, poor fit]"
same,Potency,[8],"inconclusive: 17.8 µM [inhibitor, partial curve]"
NC(=O)c1ccccc1O,Potency,[9],inactive
same,Potency,[10],inactive
same,Potency,[11],inactive
same,Potency,[12],inactive
same,"activity change, negative = inhibition",[13],inconclusive: -7.7%
same,"activity, negative = inhibition",[14],inconclusive: 8.93%
same,Potency,[15],"inconclusive: 84.1 µM [inhibitor, single point]"
Cc1cc(C(C#N)c2ccc(Cl)cc2)c(Cl)cc1NC(=O)c1cc(I)cc(I)c1O (stereo not given),Potency,[16],active: 6.58 µM and active: 16.5 µM
same,Potency,[17],"inconclusive: 4.47 µM [inhibitor, full curve]"
CCCCCCCCCCCC[N+](C)(C)Cc1ccccc1,Potency,[18],"inconclusive: 0.0035 µM [side channel, falling, full curve, poor fit]"
same,Potency,[19],"inconclusive: 44.7 µM [side channel, rising, single point]"
same,activation,[20],inconclusive: 13.2%
CCCC(=O)c1cc(O)c(O)cc1O,Potency,[18],"inconclusive: 0.0158 µM [side channel, falling, full curve, poor fit]"
same,Potency,[19],inactive
same,Potency,[20],"inconclusive: 66.8 µM [activator, single point]"
same,Potency,[17],active: 35.5 µM
CC(C)c1cc(C(C)C)c(CC(=O)NS(=O)(=O)Oc2c(C(C)C)cccc2C(C)C)c(C(C)C)c1,Potency,[16],active: 5.87 µM
